Experimental findings from PubChem BioAssay AID485344 (National Center for Advancing Translational Sciences (NCATS), 2010) are described below.

Structures are written as SMILES. Out of some 340,000 compounds screened, about 6,900 (2%) were called active. Cut-off read from the data, not from the text of the source: active = inhibition above about 30%; inactive = below that, where a call was filed. The entries are a selection whose mix differs from that of the whole data set. Entries without a call were filed so in the source.

The inhibition is the change of the read-out against control, counted positive when it falls.

UniProt P14416, sequence (P14416 whole entry, looked up): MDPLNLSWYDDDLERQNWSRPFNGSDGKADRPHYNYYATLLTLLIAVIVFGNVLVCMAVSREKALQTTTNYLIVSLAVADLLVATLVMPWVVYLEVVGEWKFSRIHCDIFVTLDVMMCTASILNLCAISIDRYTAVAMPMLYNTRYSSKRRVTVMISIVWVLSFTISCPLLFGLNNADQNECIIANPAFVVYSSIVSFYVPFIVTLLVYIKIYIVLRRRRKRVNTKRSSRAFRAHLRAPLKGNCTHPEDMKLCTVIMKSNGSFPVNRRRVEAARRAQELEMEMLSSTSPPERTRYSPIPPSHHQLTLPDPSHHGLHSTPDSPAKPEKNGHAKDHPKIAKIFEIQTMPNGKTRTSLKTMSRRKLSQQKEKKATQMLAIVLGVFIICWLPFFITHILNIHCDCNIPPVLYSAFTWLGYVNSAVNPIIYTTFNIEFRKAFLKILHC

The target of this assay is D(2) dopamine receptor (Homo sapiens) (UniProt P14416). As to the kind of experiment: HTS Assay for Allosteric Antagonists of the Human D2 Dopamine Receptor: Primary Screen for Antagonists. Note: 0% is about no effect. The conditions noted are these: HEK293 TREx D2 cells, calcium flux, dopamine EC80; at 10 µM; stronger effect = higher value. The gist of the method:
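Calcium flux kinetic readout in an inducible HEK293 TREx D2 line plated overnight at 30 C. After 180 s compound exposure, an EC80 dopamine challenge follows with another 180 s kinetic read to detect antagonism.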
(A change in cytosolic calcium serves as a functional read-out for many receptors and channels.)
Take `Cc1ccc(C)c(NC(=O)Cn2cc(C(=O)C3CCCCC3)c3ccccc32)c1`: the inhibition was found to be 8.15%.

As for `O=C(c1ccc2c(c1)N(Cc1cccc(Cl)c1)C(=O)c1ccccc1S2(=O)=O)N1CCCCC1`, the inhibition stood at 6.2%.

On to `Cc1ccc2[nH]c3c(=O)n(CC(=O)N(C)c4cc(Cl)ccc4C)ncc3c2c1`, for which the inhibition came out at 9.37%.

With `O=C(CN1CCCN(Cc2ccc(Cl)cc2)S1(=O)=O)Nc1ccccc1F`, the inhibition turned out to be 3.91%.

On to `COc1cccc(NC(=O)c2oc3ccccc3c2NC(=O)c2ccc(C(F)(F)F)cc2)c1`, for which the inhibition turned out to be 0.278%.

As for `COc1cccc2c1Oc1ncccc1N(C(=O)CCC(=O)NCc1ccc(N(C)C)cc1)C2`, the inhibition was -5.03%.

In the case of `Cc1oc2ncn(CC(C)C)c(=O)c2c1C(=O)N1CCN(c2ccc(F)cc2)CC1`, the inhibition is 7.79%.

Consider `COc1cccc(NC(=O)/C(C#N)=C\c2cn(Cc3ccc(C)cc3)c3ccccc23)c1`, for which the inhibition turned out to be 4.53%.

With `O=C(c1ccc(C(F)(F)F)cc1)N1CCC(c2nc(-c3ccc(S(=O)(=O)N4CCCC4)cc3)no2)CC1`, the inhibition worked out at 2.46%.

In the case of `COc1ccc(-c2oc3ncn4nc(-c5ccccc5Br)nc4c3c2-c2ccc(OC)cc2)cc1`, the inhibition is -2.14%.

Turning to `COC(=O)c1ccc(Cl)cc1NC(=O)N1CCCn2nc(C)cc21`, the inhibition was -0.245%.

For the compound `COc1cc(OC)c(NC(=O)CCCn2nc(C)c3sc4ccccc4c3c2=O)cc1Cl`, the inhibition came to 10.6%.

In the case of `COc1nc(-c2ccc(C)cc2)ccc1-c1noc(-c2ccccc2Br)n1`, the inhibition was found to be 7.91%.

For `CCn1c(C)cc(C(=O)CSc2nnnn2C2CCCC2)c1C`, the inhibition is active: 30.4%.

For `CC(=O)Nc1nonc1-c1nnc(SCC(=O)Nc2cc(C)cc(C)c2)n1C`, the inhibition is -3.14%.

With `Cc1ccc(C)c(N2CCN(C(=O)CN3CCSc4ccc(S(=O)(=O)N(C)C)cc43)CC2)c1`, the inhibition is -20.3%.

As for `O=c1c2cccnc2n(Cc2ccccc2F)c(=O)n1Cc1ccccc1Cl`, the inhibition is -5.62%.

As for `CCOC(=O)c1ccc(NC(=O)CC2C(=O)N(c3cccc(OC)c3)C(=O)N2C2CCCCC2)cc1` (stereo unspecified), the inhibition is -6.78%.

For the compound `Cc1ccc(OCCn2cc(C(=O)C3CCCCC3)c3ccccc32)cc1`, the inhibition turned out to be 10.8%.

`CCN1CCN(c2cc(C)c3cc(NC(=O)c4cccc(C(F)(F)F)c4)ccc3n2)CC1`: the inhibition worked out at 7.63%.

`CCOC(=O)c1c(N)n(-c2ccc(Cl)c(Cl)c2)c2nc3ccccc3nc12`: the inhibition was -10.6%.

For the compound `COc1cccc(CSc2nc3n(n2)C(c2cccs2)C(C(=O)Nc2ccccc2C)=C(C)N3)c1` (stereo unspecified), the inhibition came out at 18.6%.

With `Cc1ccc(NC(=O)Cn2c(=O)n(-c3ccc(Cl)c(Cl)c3)c(=O)c3c(C)c(C)sc32)c(C)c1`, the inhibition is -13.4%.

As for `O=S(=O)(NCc1nc2cccnc2n1Cc1ccc(F)cc1)c1ccc2c(c1)CCCC2`, the inhibition is -24.8%.

For the compound `CCOC(=O)c1ccc(NC(=O)c2c(NCc3cccs3)sc3c2CCCCC3)cc1`, the inhibition came out at 2.08%.

For `Cc1cc(NC(=O)Cn2c(=O)nc(-c3ccccc3F)c3cc(Cl)ccc32)ccc1Br`, the inhibition was -1.87%.

Regarding `O=S(=O)(NCCc1csc2nc(-c3ccc(F)cc3)nn12)c1ccc(Br)cc1`, the inhibition is -8.74%.

With `CCOC(=O)c1c(C)oc2nc(C)nc(N3CCN(c4ccc(C(C)=O)cc4)CC3)c12`, the inhibition amounted to 1.11%.

As to `CC(C)(C)OC(=O)N1CCC(c2c(C(=O)NCc3ccc(F)cc3)cnn2-c2ccc(F)cc2)CC1`, the inhibition was determined as 7.06%.

`COc1cccc(C(=O)N(Cc2sccc2C)C2CCS(=O)(=O)C2)c1` (stereo unspecified): the inhibition was determined as 3.88%.

In the case of `COc1ccc(C(=O)Nc2cc(-c3cccc(C)c3)nn2-c2ccccc2)cc1`, the inhibition was 3.26%.

`N/C(=N\OC(=O)c1ccc(OCC(F)(F)F)nc1)c1ccc(Cl)cc1`: the inhibition was active: 30.3%.

On to `CCN(CC)CCNC(=O)c1sc2nc3n(c(=O)c2c1C)CCCCC3`, for which the inhibition was -21.7%.

In the case of `COc1ccc2cc3cc(C(=O)N4CCN(c5ccc(C(C)=O)cc5)CC4)sc3nc2c1Cl`, the inhibition is 9.39%.

As to `Cc1ccc(-c2cn3c(n2)sc2cc(C(=O)NCCCN4CCCCC4)ccc23)cc1`, the inhibition is -3.66%.

On to `O=C(CCSCc1cnn(-c2ccccc2)c1-n1cccc1)NCc1ccccc1F`, for which the inhibition was -4%.

For `CCOc1ccc(NC(=O)c2cc3c(-c4ccccc4F)nn(C)c3s2)cc1`, the inhibition is -15.2%.

As for `C=Cc1ccc(Cn2c(C(=O)O)c(CNCc3cccs3)c3ccc(C)cc32)cc1`, the inhibition came to 0.0819%.

For the compound `COc1ccccc1C(=O)Nc1c(C(=O)N(CCN(C)C)Cc2ccco2)oc2ccccc12`, the inhibition is -7.32%.

On to `O=C1CC(c2ccncc2)c2cc3c(cc2N1)OCO3` (stereo unspecified), for which the inhibition was active: 37.2%.

In the case of `Cn1c(SCc2ccc(F)cc2)nc2c([nH]c3ccccc32)c1=O`, the inhibition worked out at 8.58%.

Consider `CCOC(=O)C1CCCN(C(=O)c2cn(CC)c3ccc(S(=O)(=O)N(C)C)cc3c2=O)C1` (stereo unspecified), for which the inhibition is active: 35.1%.

Take `Cc1ccc(S(=O)(=O)c2cn(C)c3cc(N4CCCCCC4)c(F)cc3c2=O)cc1`: the inhibition was 3.78%.

As to `Cc1ccccc1NC(=O)c1ccc2nc(Cc3ccccc3)oc2c1`, the inhibition is -17.5%.

Regarding `CC(=O)c1ccc(NS(=O)(=O)c2cc(-c3cnc(C4CC4)o3)ccc2C)cc1`, the inhibition was -2.19%.

`CSc1nc(C)cc(Nc2c(C)cc(C)cc2C)n1`: the inhibition was -13.2%.

As to `COc1cccc(C(=O)Nc2ccc(Cl)c(-c3nc4ccccc4[nH]3)c2)c1`, the inhibition worked out at 1.08%.

Regarding `CCc1ccc(OCCCSc2nc(-c3ccc(C(C)(C)C)cc3)nc3cc(=O)[nH]n23)cc1`, the inhibition is 3.31%.

Turning to `CC(=O)c1ccc(N2CCN(S(=O)(=O)c3ccc4c(c3)CC(C)N4C(=O)C3CCC3)CC2)cc1` (stereo unspecified), the inhibition worked out at 21.9%.

For the compound `COC(=O)c1ccc(NS(=O)(=O)c2ccc(-n3cccn3)cc2)cc1`, the inhibition was -17.7%.

For `CCCCc1cc(=O)oc2cc(C)c3c(C)coc3c12`, the inhibition was -5.57%.

For the compound `CC(C)N1CCc2c(sc(NC(=O)Cc3ccccc3)c2C(N)=O)C1`, the inhibition was active: 40.1%.

As to `CSc1ncc(Cl)c(C(=O)Nc2ccc(S(=O)(=O)N3CCC(C)CC3)cc2)n1`, the inhibition is -1.76%.

On to `CCOC(=O)c1cccc(NC(=O)c2ccc3c(c2)nnn3C2CCCC2)c1`, for which the inhibition is -0.394%.

In the case of `Cc1ccc(C2c3c(-c4ccccc4O)n[nH]c3C(=O)N2CCCO)cc1` (stereo unspecified), the inhibition was -1.61%.

On to `O=C(NCCn1cc(SCc2ccc(F)cc2)c2ccccc21)c1c(F)cccc1F`, for which the inhibition is -14.5%.

For the compound `Cn1cnc(S(=O)(=O)N2CCCC(C(=O)Nc3ccc(F)cc3Cl)C2)c1` (stereo unspecified), the inhibition is -5.62%.

In the case of `Cn1nnnc1SCCNCc1ccccc1OCc1ccccc1F`, the inhibition was -13.5%.

For the compound `Cc1ccc(Cn2c(C(=O)Nc3cccc(Cl)c3)cc3sccc32)cc1`, the inhibition was 16.2%.

With `COc1ccccc1NC(=O)CSc1nnc(-c2ccccc2C)o1`, the inhibition was -11.5%.

On to `COc1ccccc1CNS(=O)(=O)c1c(C(=O)N2CCCCC2)c(C)n(C)c1C`, for which the inhibition was active: 30.1%.
